According to the supplement of paper PMC8728848:
Some of the results follow.

Columns and labels:
Assay in all cases: glycan array binding signal (z-score within array); higher = stronger binding
Details in all cases: glycan notation: IUPAC condensed, linker removed
[1] = biological target: Neu5Ac(a2-3)Gal(b1-4)GlcNAc(b1-3)Gal(b1-4)[Fuc(a1-3)]GlcNAc
Summary of the method: (§1)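 Negative Z-scores can be read as non-binding. The Z-score is calculated within each array and then averaged across arrays of one protein sequence at different concentrations or buffers and across linkers. Arrays, 3228 in all, were curated from the Consortium for Functional Glycomics database and kept only where the protein sequence was available.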

[2] = biological target: Neu5Ac(a2-3)Gal(b1-4)GlcNAc6S
Summary of the method: as §1

[3] = biological target: Neu5Ac(a2-3)Gal(b1-4)[Fuc(a1-3)]GlcNAc
Summary of the method: as §1

[4] = biological target: Neu5Ac(a2-3)Gal(b1-4)[Fuc(a1-3)]GlcNAc(b1-3)Gal
Summary of the method: as §1

[5] = biological target: Neu5Ac(a2-3)Gal(b1-4)[Fuc(a1-3)]GlcNAc(b1-3)Gal(b1-4)GlcNAc
Summary of the method: as §1

[6] = biological target: Neu5Ac(a2-3)Gal(b1-4)[Fuc(a1-3)]GlcNAc(b1-3)Gal(b1-4)[Fuc(a1-3)]GlcNAc(b1-3)Gal(b1-4)[Fuc(a1-3)]GlcNAc
Summary of the method: as §1

[7] = biological target: Neu5Ac(a2-3)Gal(b1-4)[Fuc(a1-3)]GlcNAc6S
Summary of the method: as §1

[8] = biological target: Neu5Ac(a2-3)Gal6S(b1-4)GlcNAc
Summary of the method: as §1

[9] = biological target: Neu5Ac(a2-3)Gal6S(b1-4)[Fuc(a1-3)]GlcNAc
Summary of the method: as §1

Neu5Ac(a2-3)GalNAc = biological target: Neu5Ac(a2-3)GalNAc
Summary of the method: as §1

[10] = biological target: Neu5Ac(a2-3)GalNAc(b1-4)GlcNAc
Summary of the method: as §1

[11] = biological target: Neu5Ac(a2-3)[GalNAc(b1-4)]Gal(b1-4)Glc
Summary of the method: as §1

[12] = biological target: Neu5Ac(a2-3)[GalNAc(b1-4)]Gal(b1-4)GlcNAc
Summary of the method: as §1

[13] = biological target: Neu5Ac(a2-3)[Neu5Ac(a2-6)]GalNAc
Summary of the method: as §1

Neu5Ac(a2-6)Gal = biological target: Neu5Ac(a2-6)Gal
Summary of the method: as §1

Neu5Ac(a2-6)Gal(b1-4)Glc = biological target: Neu5Ac(a2-6)Gal(b1-4)Glc
Summary of the method: as §1

[14] = biological target: Neu5Ac(a2-6)Gal(b1-4)GlcNAc
Summary of the method: as §1

[15] = biological target: Neu5Ac(a2-6)Gal(b1-4)GlcNAc(b1-2)Man(a1-3)[Neu5Ac(a2-6)Gal(b1-4)GlcNAc(b1-2)Man(a1-6)]Man(b1-4)GlcNAc(b1-4)GlcNAc
Summary of the method: as §1

[16] = biological target: Neu5Ac(a2-6)Gal(b1-4)GlcNAc(b1-3)Gal(b1-4)GlcNAc
Summary of the method: as §1

[17] = biological target: Neu5Ac(a2-6)Gal(b1-4)GlcNAc(b1-3)Gal(b1-4)[Fuc(a1-3)]GlcNAc(b1-3)Gal(b1-4)[Fuc(a1-3)]GlcNAc
Summary of the method: as §1

[18] = biological target: Neu5Ac(a2-6)Gal(b1-4)GlcNAc6S
Summary of the method: as §1

Neu5Ac(a2-6)GalNAc = biological target: Neu5Ac(a2-6)GalNAc
Summary of the method: as §1

[19] = biological target: Neu5Ac(a2-6)GalNAc(b1-4)GlcNAc
Summary of the method: as §1

Neu5Ac(a2-8)Neu5Ac = biological target: Neu5Ac(a2-8)Neu5Ac
Summary of the method: as §1

[20] = biological target: Neu5Ac(a2-8)Neu5Ac(a2-3)Gal(b1-4)Glc
Summary of the method: as §1

[21] = biological target: Neu5Ac(a2-8)Neu5Ac(a2-3)[GalNAc(b1-4)]Gal(b1-4)Glc
Summary of the method: as §1

[22] = biological target: Neu5Ac(a2-8)Neu5Ac(a2-8)Neu5Ac
Summary of the method: as §1

[23] = biological target: Neu5Ac(a2-8)Neu5Ac(a2-8)Neu5Ac(a2-3)Gal(b1-4)Glc
Summary of the method: as §1

[24] = biological target: Neu5Ac(a2-8)Neu5Ac(a2-8)Neu5Ac(a2-3)[GalNAc(b1-4)]Gal(b1-4)Glc
Summary of the method: as §1

[25] = biological target: Neu5Ac(a2-8)Neu5Ac(a2-8)Neu5Ac(a2-8)Neu5Ac(a2-3)[GalNAc(b1-4)]Gal(b1-4)Glc
Summary of the method: as §1

Neu5Ac(b1-6)GalNAc = biological target: Neu5Ac(b1-6)GalNAc
Summary of the method: as §1

[26] = biological target: Neu5Ac(b2-6)Gal(b1-4)GlcNAc
Summary of the method: as §1

[27] = biological target: Neu5Ac9Ac(a2-6)Gal(b1-4)GlcNAc
Summary of the method: as §1

[28] = biological target: Neu5Gc(a2-3)Gal(b1-3)GlcNAc
Summary of the method: as §1

[29] = biological target: Neu5Gc(a2-3)Gal(b1-3)[Fuc(a1-4)]GlcNAc
Summary of the method: as §1

Neu5Gc(a2-3)Gal(b1-4)Glc = biological target: Neu5Gc(a2-3)Gal(b1-4)Glc
Summary of the method: as §1

[30] = biological target: Neu5Gc(a2-3)Gal(b1-4)GlcNAc
Summary of the method: as §1

[31] = biological target: Neu5Gc(a2-3)Gal(b1-4)[Fuc(a1-3)]GlcNAc
Summary of the method: as §1

[32] = biological target: Neu5Gc(a2-3)Gal(b1-4)[Fuc(a1-4)]GlcNAc
Summary of the method: as §1

[33] = biological target: Neu5Gc(a2-6)Gal(b1-4)GlcNAc
Summary of the method: as §1

Neu5Gc(a2-6)GalNAc = biological target: Neu5Gc(a2-6)GalNAc
Summary of the method: as §1

B1: T7P4 (Tuber borchii) (protein)
chain: GSHIGPYMSFYASSEDVRTIEEGGRTWLVGRARRADGSWQDIKLDLDNIIGNRDGHLTWGEQNFTQSASDIRFNFEGSNVPVLRAKLRNAAGGEQESDLNLGERLTNNNGDLVFN
B1 was tested, and the “glycan array binding signal (z-score)” value [1] was -0.21, the “glycan array binding signal (z-score)” value [2] was -0.208 and the “glycan array binding signal (z-score)” value [3] was -0.116. The “glycan array binding signal (z-score)” value [4] was -0.223, the “glycan array binding signal (z-score)” value [5] was -0.218 and the “glycan array binding signal (z-score)” value [6] was -0.164. For the same binder, the “glycan array binding signal (z-score)” value [7] was -0.137, the “glycan array binding signal (z-score)” value [8] was -0.213 and the “glycan array binding signal (z-score)” value [9] was -0.174. For the same binder, the “glycan array binding signal (z-score)” value (Neu5Ac(a2-3)GalNAc) was -0.215, the “glycan array binding signal (z-score)” value [10] was -0.218 and the “glycan array binding signal (z-score)” value [11] was -0.223. For the same binder, the “glycan array binding signal (z-score)” value [12] was -0.222, the “glycan array binding signal (z-score)” value [13] was -0.22 and the “glycan array binding signal (z-score)” value (Neu5Ac(a2-6)Gal) was -0.223. For the same binder, the “glycan array binding signal (z-score)” value (Neu5Ac(a2-6)Gal(b1-4)Glc) was -0.168, the “glycan array binding signal (z-score)” value [14] was -0.209 and the “glycan array binding signal (z-score)” value [15] was -0.218. The “glycan array binding signal (z-score)” value [16] was -0.221, the “glycan array binding signal (z-score)” value [17] was -0.209 and the “glycan array binding signal (z-score)” value [18] was -0.212. The “glycan array binding signal (z-score)” value (Neu5Ac(a2-6)GalNAc) was -0.189, the “glycan array binding signal (z-score)” value [19] was -0.223 and the “glycan array binding signal (z-score)” value (Neu5Ac(a2-8)Neu5Ac) was -0.22. For the same binder, the “glycan array binding signal (z-score)” value [20] was -0.136, the “glycan array binding signal (z-score)” value [21] was -0.219 and the “glycan array binding signal (z-score)” value [22] was -0.138. The “glycan array binding signal (z-score)” value [23] was -0.213, the “glycan array binding signal (z-score)” value [24] was -0.217 and the “glycan array binding signal (z-score)” value [25] was -0.223. The “glycan array binding signal (z-score)” value (Neu5Ac(b1-6)GalNAc) was -0.223, the “glycan array binding signal (z-score)” value [26] was -0.135 and the “glycan array binding signal (z-score)” value [27] was 0.017. The “glycan array binding signal (z-score)” value [28] was -0.188, the “glycan array binding signal (z-score)” value [29] was -0.192 and the “glycan array binding signal (z-score)” value (Neu5Gc(a2-3)Gal(b1-4)Glc) was -0.135. The “glycan array binding signal (z-score)” value [30] was -0.191, the “glycan array binding signal (z-score)” value [31] was -0.217 and the “glycan array binding signal (z-score)” value [32] was -0.216. The “glycan array binding signal (z-score)” value [33] was -0.215 and the “glycan array binding signal (z-score)” value (Neu5Gc(a2-6)GalNAc) was -0.201.
